Results taken from ChEMBL document CHEMBL4888484, “Replenishing the malaria drug discovery pipeline: Screening and hit evaluation of the MMV Hit Generation Library 1 (HGL1) against asexual blood stage Plasmodium falciparum ,using a nano luciferase reporter read-out” (2022).
Among all 150,000 compounds or so, about 540 (0.36%) showed an effect of 50% or more. The list shows a part of the results.

System: Plasmodium falciparum
Assay: Primary screen in NF54 nanoGlo assay, in single point, at 2uM, 72h; a lower Z score goes with more inhibition
Format: functional, Erythrocyte
Settings: timepoint 72 hour

Row | Structure (SMILES) | % Inhibition [%] | Z score
1 | COC[C@H]1[C@@H](NC(=O)C(C)(C)Oc2cc(C)ccc2C(C)C)[C@H]2CCO[C@H]21 | -10 | 1.12
2 | CC(C)CN1CCCN(C(=O)c2cc(Cl)c[nH]2)CC1 | 3 | -0.59
3 | Cc1cnc(C(=O)N2CCC[C@H]2C(=O)OCc2ccccc2)cn1 | -19 | 2.41
4 | Cc1nn(-c2ccccc2)c2nc3c(F)c(F)c(F)c(F)c3cc12 | 26 | -2.89
5 | CC(C)(C)OC(=O)N1CC2CC(=O)CC1C2 (stereo unspecified) | 3 | -0.39
6 | Cc1cc(NS(=O)(=O)c2ccc3c(c2)CCCC3)ccc1N1CCCC1=O | -15 | 2.4
7 | Cc1cc(C)cc(NC(=O)Cn2nc3c(N4CCCCCC4)nccn3c2=O)c1 | -1 | 0.11
8 | CCc1nnc2n1CCN(Cc1cn3ccccc3n1)C2 | 3 | -0.45
9 | Cc1nc(COc2ccccc2)sc1C(=O)NCc1cccnc1 | -8 | 1.08
10 | CC(C)c1onc(C(F)(F)F)c1C(=O)NC[C@H](C)N1CCOCC1 | -6 | 0.57
11 | COc1ccccc1C(=O)Nc1ccc(C2OC(=O)N(Cc3ccc(C)cc3)C2C(=O)Nc2cccc(F)c2)cc1 (stereo unspecified) | -6 | 1.02
12 | Cc1cc(NC(=O)NC(C)C)c2[nH]c(C(=O)N3CCOCC3)c(-c3ccccc3)c2c1 | 37 | -4.21
13 | O=C(CC[C@@H]1NC(=O)NC1=O)NCc1noc(C2CCCC2)n1 | -3 | 0.38
14 | CCn1c(C)nnc1Cn1c(=O)n(C2=CCCCC2)c2ccccc21 | -11 | 1.35
15 | COc1ccc(N2C(=O)[C@@H]3CCCN3[C@H]2c2ccc(Cl)c(Cl)c2)cc1 | -12 | 1.52
16 | CC(C)(C(=O)N1CCOc2ccc(F)cc2C1)C1CC1 | 0 | 0
17 | CC(C)(CN1CCCCCC1)Nc1cc(C2CC(O)C2)ncn1 (stereo unspecified) | 0 | 0.04
18 | N#CC1(C(=O)NC[C@H](O)c2ccsc2)CCCC1 | -13 | 1.49
19 | Cc1ccc(C)c(CN(c2cc(F)cc(F)c2)S(=O)(=O)c2cccn3cnnc23)c1 | -7 | 0.91
20 | CCn1nc(C)cc1CN(C)Cc1c(C)n[nH]c1C | 6 | -0.81
21 | Cc1nc2ccc(NC(=O)[C@@H]3CC=CCC3)cc2s1 | -4 | 0.47
22 | CC1OCCC1NC(=O)CCCNC(=O)OC(C)(C)C (stereo unspecified) | -11 | 1.46
23 | Cc1nn(CC(=O)N2CCOC[C@@H](O)C2)cc1Cl | -5 | 0.77
